# According to the supplement of paper PMC12217912:
# The list shows a part of the results. The full chains were built here from the parent and the listed change. Values near 0.05 are background.
# B1: TEV protease; numbered along this chain (parent)
# chain: MGESLFKGPRDYNPISSSICHLTNESDGHTTSLYGIGFGPFIITNKHLFRRNNGTLVVQSLHGVFKVKDTTTLQQHLVDGRDMIIIRMPKDFPPFPQKLKFREPQREERICLVTTNFQTKSMSSMVSDTSCTFPSGDGIFWKHWIQTKDGQCGSPLVSTRDGFIVGIHSASNFTNTNNYFTSVPKNFMELLTNQEAQQWVSGWRLNADSVLWGGHKVFMVKPEEPFQPVKEATQL
# Variants of: B1
# Experiment: raw area under fraction-flipped curve 0-4 h after induction (AUC4h, not background-subtracted), DNA-recorder readout of cleavage of the substrate (dimensionless); higher = more cleavage of the substrate by the protease variant
# Conditions: temperature: 34 °C; time window: 0-4 h after rhamnose induction
# Experimental: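 In vivo DNA recorder in E. coli TOP10(DE3) ΔrhaA at 34 °C. Each TEVp single-site mutant (parent TEVp 0) is paired with a single-site variant of the 7-mer TEVs (canonical ENLYFQ|S). The substrate sits between flexible linkers in a Bxb1-sfGFP-TEVs-SsrA fusion, so cleavage stabilises Bxb1 and speeds flipping of a recombination array, read by NGS. The value is the raw area under the fraction-flipped curve over 0-4 h after rhamnose induction (AUC4h), with ≥20 reads per time point. It is not background-subtracted; inactive controls average about 0.047.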
# 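Also: Bxb1 expression induced with 0.2% (w/v) L-rhamnose at OD600 near 0.5, cultures sampled hourly, flipped fraction per protease–substrate barcode pair counted by paired-end Illumina sequencing.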
Variant,area with substrate ENLYFQA,area with substrate ENLYFQC,area with substrate ENLYFQD,area with substrate ENLYFQF,area with substrate ENLYFQG,area with substrate ENLYFQH,area with substrate ENLYFQI,area with substrate ENLYFQK,area with substrate ENLYFQL,area with substrate ENLYFQM,area with substrate ENLYFQN,area with substrate ENLYFQQ,area with substrate ENLYFQR,area with substrate ENLYFQS,area with substrate ENLYFQT,area with substrate ENLYFQV,area with substrate ENLYFQW,area with substrate ENLYFQY,area with substrate ENLYFQP,area with substrate ENLYFQE
T23H,0.083,0.133,0.0623,0.0726,0.0847,0.0769,0.0626,0.0699,0.0544,0.0762,0.0731,0.0748,0.0701,0.096,0.056,,,,,
T23V,0.121,0.116,,0.0892,0.091,0.0779,0.0668,0.0722,0.0293,0.101,0.0847,,,0.105,0.0776,0.086,0.0743,0.0878,,
I43F,0.0892,0.0842,,0.073,0.0568,,0.0586,0.0471,0.0432,0.0768,0.0726,,0.052,0.0778,0.0617,,0.0621,0.0593,0.0676,
I43G,0.0682,,0.0252,,0.0374,0.0437,0.046,0.0428,0.0433,0.0527,0.0387,,0.0375,0.0508,0.0553,0.0359,,0.051,0.0361,
I43W,0.0593,0.082,0.0568,,0.0493,,0.0508,,0.0475,0.0484,0.0271,,,0.0511,,,0.0202,,0.0384,0.0457
D11H,0.0822,0.106,0.0381,,,,,0.0706,,,0.0711,,0.0704,0.0953,0.004,0.0671,,0.0492,0.0474,0.0563
D11Y,0.0869,0.101,0.0644,,0.103,0.108,0.0571,0.0683,0.0451,0.0777,0.0649,,0.0606,0.095,0.0679,0.0652,0.064,0.0942,,
S4W,0.075,0.0843,0.0977,0.0649,,0.0723,0.0483,0.0857,0.0339,0.0928,,,0.0637,0.0849,0.0617,0.0673,0.0519,0.0619,0.0769,
L33W,0.0588,0.0628,0.0569,,0.0546,0.066,0.0551,0.0586,0.0641,0.0526,0.066,0.0663,0.0559,0.0602,0.0635,0.0554,,0.0383,0.0599,0.0602
L33G,0.0879,0.103,0.0749,,0.107,0.0826,0.044,0.0484,0.0542,0.0745,,0.0574,0.0653,0.0944,0.0783,0.064,0.056,0.0526,0.0478,
S26D,0.0795,,0.0438,,0.029,0.0818,0.0549,0.05,0.043,0.0824,0.0908,,0.0544,0.0875,0.0674,0.0627,,,,
H21R,0.1,0.107,0.0562,0.0919,0.0947,0.0912,,0.0664,0.0574,0.0816,0.0639,,0.0619,0.0983,,,0.0636,,0.0631,
F41T,0.072,0.113,0.0449,0.0708,0.0785,0.087,0.0529,,0.0624,0.0975,0.058,0.0625,0.0587,0.0929,0.0606,0.0485,0.0634,0.0733,0.0494,
Y12G,0.0919,0.11,0.0619,0.0765,0.096,0.087,0.0572,,0.063,0.0817,,0.0811,0.0473,0.0971,0.0626,0.0622,0.0611,0.0791,0.0652,0.0694
F6Q,0.0933,,,,,,,,,0.0729,0.0815,,0.0436,0.0931,0.0614,,,,,
P14G,0.0941,,,0.07,0.0936,0.0816,0.0518,0.0722,0.0435,0.0897,0.0934,,0.0613,0.105,0.0777,,0.0724,0.0763,0.0649,
P14N,0.0825,0.109,,,,0.0705,0.0554,0.0595,0.0576,0.0827,,,0.0585,0.0885,,0.0659,0.0663,0.0735,,0.0608
P14D,0.108,0.119,0.0715,,0.0905,0.0516,0.0638,0.0434,0.0786,0.0869,0.0924,0.0694,0.0507,0.101,0.0626,,0.081,0.0755,,
C20P,0.0464,0.0563,0.0485,0.0581,0.0279,0.0549,0.0466,0.0428,0.0632,0.0503,0.0519,,0.0492,0.0592,0.0552,0.064,0.0484,0.0591,0.043,0.0404
I36Q,0.0709,0.0683,,0.072,0.0639,0.0546,0.0397,0.0452,0.0584,,0.0511,,,0.0688,,0.052,,,0.0565,
R10Q,0.11,0.108,0.0651,,0.102,,0.0562,0.0596,0.0494,0.0979,0.074,,0.0654,0.111,0.0661,0.0349,0.0763,0.0877,,
R10H,0.0907,0.0856,0.0641,,0.0883,,,0.065,0.058,0.0918,0.0679,,0.0741,0.0868,0.0588,0.0711,0.0624,,,0.0677
G28K,0.0689,0.108,0.078,0.0689,0.0727,,0.0574,,0.0792,,0.0828,,0.0709,0.0822,0.0039,0.0568,,0.0635,,0.0589
G2D,0.0774,,0.0585,,0.127,0.0795,,0.0659,,0.0887,0.0769,0.062,0.0598,0.0959,0.0602,,0.0424,0.0742,,
